Laboratory results published in patent US20070082856A1, “Combination therapy comprising the use of et-743 and doxorubicin for treating cancer” (Pharma Mar, S.A.U., priority 2003, published 2007).

Columns and labels:
[1] = human, in vivo
[2] = tested on: untreated metastatic soft tissue sarcomas (STS) and advanced pre-treated anthracyline-naïve breast cancer (ABC); assay: Phase I clinical trial (Example 1): antitumor activity of ET-743 in combination with doxorubicin; format: in vivo, human; set-up: key to BEST RESP: confirmed partial response (PR); long lasting (>6 months) stable disease (SD)
Method: In this multicenter dose and LTS finding trial, patients were assigned consecutively to start either with sequence A (ET-743 before Doxo) or with the reverse sequence (B) at the following dose levels every 21 days: […] Oral steroids premedication for ET-743 was given 24 h before and for 48 h following the day of treatment. […] Patients continued treatment until progressive disease (PD) or intolerance, and were […] 2 cycles for activity. In this study, 22 patients were enrolled and evaluable. The patients were required to have normal liver, renal, cardiac and haematologic functions and good performance status for entry into the study. Enrolment was restricted to breast cancer and soft tissue sarcoma.

COc1cc2c(cc1O)CCN[C@]21CS[C@@H]2c3c(OC(C)=O)c(C)c4c(c3[C@H](COC1=O)N1[C@@H]2[C@H]2c3c(cc(C)c(OC)c3O)C[C@@H]([C@@H]1O)N2C)OCO4 [ET-743, ecteinascidin 743]
toxicity that defined the MTD [1]: prolonged grade 4 neutropenia/febrile neutropenia | patients with confirmed partial response (PR) ([2]; ET-743 dose level 600 μg/m^2 + Doxo 60 mg/m^2): 2 | patients with confirmed partial response (PR) ([2]; ET-743 dose level 700 μg/m^2 + Doxo 60 mg/m^2): 1 | patients with confirmed partial response (PR) ([2]; ET-743 dose level 800 μg/m^2 + Doxo 60 mg/m^2): 2 | TTP (Time to Progression) ([2]; PT # 3, STS, ET-743 600 μg/m^2 + Doxo 60 mg/m^2): 5 months | BEST RESP ([2]; PT # 3, STS, ET-743 600 μg/m^2 + Doxo 60 mg/m^2, LN, lung, bone): PR | TTP (Time to Progression) ([2]; PT # 5, STS, ET-743 600 μg/m^2 + Doxo 60 mg/m^2): 12 months | BEST RESP ([2]; PT # 5, STS, ET-743 600 μg/m^2 + Doxo 60 mg/m^2, Pelvis, bone): SD | TTP (Time to Progression) ([2]; PT # 9, STS-ovary, ET-743 600 μg/m^2 + Doxo 60 mg/m^2): 5 months | BEST RESP ([2]; PT # 9, STS-ovary, ET-743 600 μg/m^2 + Doxo 60 mg/m^2, Abdo, skin): PR | TTP (Time to Progression) ([2]; PT # 10, STS, ET-743 600 μg/m^2 + Doxo 60 mg/m^2): 5 months | BEST RESP ([2]; PT # 10, STS, ET-743 600 μg/m^2 + Doxo 60 mg/m^2, Lung): SD | TTP (Time to Progression) ([2]; PT # 11, STS-uterus, ET-743 700 μg/m^2 + Doxo 60 mg/m^2): 6+ months | BEST RESP ([2]; PT # 11, STS-uterus, ET-743 700 μg/m^2 + Doxo 60 mg/m^2, Lung): SD | TTP (Time to Progression) ([2]; PT # 13, STS, ET-743 700 μg/m^2 + Doxo 60 mg/m^2): 7+ months | BEST RESP ([2]; PT # 13, STS, ET-743 700 μg/m^2 + Doxo 60 mg/m^2, Lung, mediastinum, LN): PR | TTP (Time to Progression) ([2]; PT # 15, STS-uterus (prior adjuvant doxo-6 cycles), ET-743 800 μg/m^2 + Doxo 60 mg/m^2): 4 months | BEST RESP ([2]; PT # 15, STS-uterus (prior adjuvant doxo-6 cycles), ET-743 800 μg/m^2 + Doxo 60 mg/m^2, Abdomen, pelvis): PR | TTP (Time to Progression) ([2]; PT # 16, ABC, ET-743 800 μg/m^2 + Doxo 60 mg/m^2): 5+ months | BEST RESP ([2]; PT # 16, ABC, ET-743 800 μg/m^2 + Doxo 60 mg/m^2, Pleura, chest wall, LN): PR | TTP (Time to Progression) ([2]; PT # 18, STS-cervix, ET-743 800 μg/m^2 + Doxo 60 mg/m^2): 6+ months | BEST RESP ([2]; PT # 18, STS-cervix, ET-743 800 μg/m^2 + Doxo 60 mg/m^2, Lung): SD | TTP (Time to Progression) ([2]; PT # 21, STS, ET-743 800 μg/m^2 + Doxo 60 mg/m^2): 4+ months | BEST RESP ([2]; PT # 21, STS, ET-743 800 μg/m^2 + Doxo 60 mg/m^2, Lung, subcutaneous): SD
